# PubChem BioAssay AID651820 (National Center for Advancing Translational Sciences (NCATS), 2012)
# Screen size: about 340,000 compounds; about 12,000 (3.5%) were called active. The shares of active, inactive and inconclusive entries below differ from those in the screen. Calls come from the whole dose curve; as a rule, active = well fitted inhibition curve with a large enough effect; inconclusive = small, poorly fitted or top-dose-only effect, or another doubt; inactive = no such curve, though single readings can be large or run the other way. Potencies of inconclusive entries are left out as doubtful fits.
# Assay: qHTS Assay for Inhibitors of Hepatitis C Virus (HCV)
# Details: Huh7.5.1 HCVcc-Cre (HCVcc is cell-culture hepatitis C virus) infection, luciferase reporter, 44 h; series mostly up to 41.8 µM
# Method in brief: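 Luciferase read-out (15 sec integration) after a 15 min room-temperature substrate step quantifies HCVcc-Cre infection. Cells, 1,000 per well, had compound added 4 h post-plating, then virus at ~0.5 moi, and were cultured 44 h.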
# Potency is the fitted concentration of half-maximal effect; tags give direction and shape of the fitted curve.
row,Structure (SMILES),Potency
1,CCOC(=O)N1CCN(c2nc(-c3cccs3)nc3ccccc23)CC1,"inconclusive [inhibitor, single point]"
2,O=CNc1c(Cl)cc2c(c1Cl)Cc1cc([N+](=O)[O-])ccc1-2,"inconclusive [inhibitor, single point]"
3,N#Cc1ccc(CSc2ccc(S(=O)(=O)N3CCCCCC3)cn2)cc1,"inconclusive [inhibitor, single point]"
4,CC(C)Oc1ccc(C(=O)Nc2ccc(NC(=O)c3ccco3)c(Cl)c2)cc1,"inconclusive [inhibitor, partial curve]"
5,Cc1ccc2[nH]c(CN3CCC(CO)(CC4CCCCO4)CC3)c(C)c2c1 (stereo not drawn),inactive
6,C=CCOc1c(Br)cc(CNn2nnnc2N)cc1OCC,"inconclusive [inhibitor, single point]"
7,CN(CC(=O)Nc1cccc(F)c1)C(=O)c1cc(-c2ccccc2)nc2ccccc12,"inconclusive [inhibitor, partial curve, poor fit]"
8,Cc1cc(C)c(S(=O)(=O)N2CCCc3ccccc32)c(C)c1,inactive
9,Cc1nc2ccc(NC(=O)c3cccs3)cc2c(=O)n1Cc1ccc(Cl)cc1,"inconclusive [inhibitor, full curve]"
10,CCOc1ccc(S(=O)(=O)N2CCN(C(=S)NCc3ccco3)CC2)cc1,inactive
11,O=C(CSc1nc2ccsc2c(=O)n1NC(=O)c1ccccc1)NCc1ccco1,inactive
12,CN(C)CCN(CC1CCCN(Cc2ccccc2F)C1)C(=O)c1ccc(Cl)cc1 (stereo not drawn),"inconclusive [inhibitor, single point]"
13,Cc1c(C#N)c(N)nc(Cl)c1C#N,inactive
14,O=C(Nc1ccc(-c2nc3ccccc3[nH]2)cc1)c1ccc(N2C(=O)CCC2=O)cc1,inactive
15,O=C(Nc1ccccc1C(F)(F)F)c1ccccn1,inactive
16,O=C(c1cc(COc2ccc(F)cc2Cl)on1)N1CCCCCC1,"inconclusive [inhibitor, single point]"
17,CC(C)(C)OC(=O)NCCCCCc1nnc(SCc2ccc(F)cc2)o1,"inconclusive [inhibitor, single point]"
18,O=C(COC(=O)c1cccnc1Cl)Nc1cc(S(=O)(=O)N2CCCCCC2)ccc1Cl,"inconclusive [inhibitor, full curve]"
19,COC(=O)[C@H](Cc1ccccc1)NC(=O)N1Cc2ccccc2C[C@H]1C(=O)OC,"inconclusive [inhibitor, single point]"
20,O=C(CN1C(=O)NC2(CCCC2)C1=O)Nc1nc(-c2ccccc2)cs1,"inconclusive [inhibitor, single point]"
21,CN(C)S(=O)(=O)c1ccc(NC(=O)c2cc(-c3cccs3)nc3ccccc23)cc1,"inconclusive [inhibitor, partial curve]"
22,COCCCNC(=O)CN(c1cc(OC)ccc1OC)S(=O)(=O)c1ccccc1,inactive
23,Cc1ccccc1OCCC(=O)OCC(=O)NNC(=O)c1cccs1,inactive
24,CC(C)(C)C(=O)NC1(C(F)(F)F)NC(=O)N(c2ccc(F)cc2)C1=O (stereo not drawn),inactive
25,CC1=C(C(=O)OC2CCCCCC2)C(c2ccc(C)o2)C2=C(CCCC2=O)N1 (stereo not drawn),"inconclusive [inhibitor, single point]"

row,Structure (SMILES),Potency
1,Cc1nn(-c2ccccc2)c(C)c1NC(=O)COC(=O)CC(C)c1ccccc1 (stereo not drawn),"inconclusive [inhibitor, single point]"
2,COc1ccc(N2CCN(CC(O)COc3ccc(C)cc3C)CC2)cc1 (stereo not drawn),inactive
3,Cc1ccc(CNC(=O)CCS(=O)(=O)c2cc3c(cc2Cl)NC(=O)CO3)cc1,inactive
4,CCCCCn1c2nc3ccccc3nc2c2c(=O)n(CC(C)C)cnc21,inactive
5,COCC(C)NC(=O)c1oc2c(c1C)C1(CCC2)SCCS1 (stereo not drawn),"inconclusive [inhibitor, single point]"
6,Cc1cc(C)n2nc(C(=O)Nc3cccnc3)nc2n1,"inconclusive [inhibitor, partial curve]"
7,Fc1ccc(N2CCN(c3cnc4ccccc4n3)CC2)cc1,"inconclusive [inhibitor, single point]"
8,Cc1ccc(C(=O)CC(=O)c2cc(Cl)ccc2O)cc1,active: 12.6 µM
9,Cc1ccc(C(C)NC(=O)c2cc3cc(Br)ccc3oc2=N)cc1 (stereo not drawn),"inconclusive [inhibitor, single point]"
10,Cc1ccc(C)c(COC(=O)c2cc([N+](=O)[O-])ccc2N2CCOCC2)c1,active: 12.6 µM
11,COc1ccc2c(c1)sc(=N)n2C,inactive
12,CCCC/C(=N\O)c1c[nH]c2ccccc12,"inconclusive [inhibitor, partial curve]"
13,CCCCn1c(O)c(C(C)=NCc2cc(OC)cc(OC)c2)c(=O)[nH]c1=O,"inconclusive [inhibitor, single point]"
14,O=[N+]([O-])c1cc2c(c(CSc3ncccn3)c1)OCOC2,"inconclusive [inhibitor, single point]"
15,FC(F)(F)c1ccccc1NC(=S)NN1CCOCC1,inactive
16,Cc1cc([N+](=O)[O-])ccc1NC(=O)C(C)N1CCN(c2ccccn2)CC1 (stereo not drawn),"inconclusive [inhibitor, single point]"
17,COc1ccc(OC)c(/C=N\NC(=O)c2ccc(-c3ccccc3)cc2)c1,"inconclusive [inhibitor, partial curve]"
18,COc1cc2c(cc1OC)C(c1cccs1)N(C(=O)c1ccc(S(=O)(=O)N(C)C)cc1)CC2 (stereo not drawn),"inconclusive [inhibitor, single point]"
19,Cc1[nH]n(-c2ccccc2)c(=O)c1N=Nc1nccs1,"inconclusive [inhibitor, full curve, poor fit]"
20,Cc1cc(N2CCCCC2C)nc(-c2ccccc2O)n1 (stereo not drawn),"inconclusive [inhibitor, partial curve]"
21,CCCCN(C)CCNC(=O)c1ccc2c(c1)NC(=O)C(N1CCCCC1)S2 (stereo not drawn),"inconclusive [inhibitor, single point]"
22,CC(=O)C1=C(O)C(=O)N(CCCN2CCOCC2)C1c1ccccc1[N+](=O)[O-] (stereo not drawn),inactive
23,Cn1ncc([N+](=O)[O-])c1C(=O)Nc1ccc(Cl)cc1,inactive
24,Clc1ccccc1Nc1c2c(nc3ncnn13)CCC2,"inconclusive [inhibitor, partial curve]"
25,Cc1ccc2[nH]c3c(c2c1)CCNC3=O,inactive

row,Structure (SMILES),Potency
1,CCOc1ccc(NC(=O)CN(C)C(=O)Cc2sc(C)nc2-c2ccc(F)cc2)cc1OCC,inactive
2,Nc1c(Cl)ncnc1NCCc1ccc(O)cc1,active: 6.31 µM
3,COc1ccc(-c2nc(-n3c(C)c(C(C)=O)c(C(C)=O)c3C)sc2C)cc1,"inconclusive [inhibitor, single point]"
4,COc1ccc(CCN(C)Cc2ccc(C(=O)Nc3ccccc3)cc2)cc1OC,active: 10 µM
5,O=C(/C=C/c1ccccc1Cl)NCc1cccs1,"inconclusive [inhibitor, single point]"
6,CC(C)(C)NC(=S)NNC(=O)c1cccc(Br)c1,inactive
7,CCCCn1cc2c(c1-c1cccc(C)c1)c(=O)n(C)c(=O)n2C,active: 10 µM
8,Cc1ccc(/C(N)=N/OC(=O)c2cccc(F)c2)cc1,"inconclusive [inhibitor, single point]"
9,COc1ccc(NCC(=O)Nc2ccccc2C#N)cc1Cl,"inconclusive [inhibitor, single point]"
10,Cc1ccc(-c2nc3cc(NC(=O)C(C)C)ccc3o2)cc1,"inconclusive [inhibitor, partial curve, poor fit]"
11,Nc1nnc(SCC(=O)Nc2ccc3nc(SCC(=O)Nc4ccccc4)sc3c2)s1,"inconclusive [inhibitor, single point]"
12,CC(C)CC(=O)NC(=S)Nc1nc(-c2ccccc2)cs1,"inconclusive [inhibitor, single point]"
13,CC(=O)Oc1ccc(N(C(C)=O)S(=O)(=O)c2ccc3ccccc3c2)cc1Br,"inconclusive [inhibitor, single point]"
14,COc1ccccc1/C=C(/CC(=O)NCc1ccc(F)cc1)c1nc2ccccc2s1,"inconclusive [inhibitor, partial curve]"
15,CC(=O)c1ccc(NC(=O)C(C)n2nc(-c3ccccc3)c3cc(Cl)ccc32)cc1 (stereo not drawn),"inconclusive [inhibitor, partial curve]"
16,CCOC(=O)c1cc(-c2ccccc2)sc1NC(=O)C(C)OC(=O)c1cccnc1OCC (stereo not drawn),active: 3.55 µM
17,CCOC(=O)c1cc(C#N)c(N2CCCC2)nc1-c1ccccc1,"inconclusive [inhibitor, partial curve]"
18,OC(CN(c1ccccc1)c1ccccc1)Cn1cnc2ccccc21 (stereo not drawn),"inconclusive [inhibitor, partial curve]"
19,CCOc1cccc(-c2c(C(=O)N/N=C(\C)c3cccs3)nnn2-c2nonc2N)c1,"inconclusive [inhibitor, single point]"
20,CN(C)CCCN(Cc1cc2cc3c(cc2[nH]c1=O)OCO3)C(=S)Nc1cccc(Cl)c1,active: 10 µM
21,Clc1ccc(CSc2nnc(-c3c[nH]c4ccccc34)o2)cc1,"inconclusive [inhibitor, single point]"
22,CC(=O)c1ccc(Oc2cc(C)nc(NCc3ccccc3)n2)cc1,active: 12.6 µM
23,C[C@H]1CN([C@@H](C)CO)C(=O)Cc2cc(NC(=O)CCC(F)(F)F)ccc2O[C@H]1CN(C)Cc1ccc(-c2ccccc2)cc1,"inconclusive [inhibitor, partial curve]"
